Assay results published in a collection of fitness landscapes (doi:10.1038/s41467-024-54723-y).
Over roughly 18,000 sequences, “TetR repression strength (sort-seq, GFP reporter)” has its median near 0.23; the highest 2% begin near 0.68. Some of the results follow.

target: TetR (class B, Tn10) (UniProt P04483); assay: TetR repression strength (sort-seq, GFP reporter) (relative to tetO2 = 1); higher = stronger repression; settings: E. coli
Summary of the method: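 E. coli SIG10-MAX carried a low-copy plasmid library with eight randomized operator positions between a constitutive promoter and sfGFP, with TetR constitutively expressed. Cells grew 5 h at 37 °C in LB with 50 µg/mL chloramphenicol, then 10^6 cells were FACS-sorted into 13 fluorescence bins, each Illumina-sequenced. Repression strength is the top bin index plus one minus the read-weighted mean bin, divided by the wild-type operator value. Three independent transformations; variants with ≥30 reads in all replicates and CV ≤0.5 were averaged.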

Chain of UniProt P04483 (P04483 whole entry): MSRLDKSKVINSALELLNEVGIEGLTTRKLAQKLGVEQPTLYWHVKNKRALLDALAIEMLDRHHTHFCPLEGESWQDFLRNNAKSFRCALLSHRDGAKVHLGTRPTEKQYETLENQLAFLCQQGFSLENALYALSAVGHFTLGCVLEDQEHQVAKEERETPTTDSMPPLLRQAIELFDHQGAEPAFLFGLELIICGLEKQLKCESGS

| Sequence | TetR repression strength |
| --- | --- |
| TCCCGTTCAGTCATCGAGA | 0.413 |
| TCCCCGCTAGTGCGCGAGA | 0.39 |
| TCCCCTGCAGTATTAGAGA | 0.211 |
| TCCCTGGTAGTTCTTGAGA | 0.181 |
| TCCCGTCTAGTGTAGGAGA | 0.463 |
| TCCCTGCGAGTTGCGGAGA | 0.266 |
| TCCCGGAAAGTGGATGAGA | 0.165 |
| TCCCTTAAAGTGAAGGAGA | 0.097 |
| TCCCGCAAAGTGAATGAGA | 0.207 |
| TCCCCCTGAGTTGGTGAGA | 0.38 |
| TCCCGTCGAGTTTGGGAGA | 0.295 |
| TCCCGCTAAGTCTACGAGA | 0.0688 |
| TCCCTTACAGTGCACGAGA | 0.358 |
| TCCCTTGCAGTGACTGAGA | 0.341 |
| TCCCATATAGTTGAAGAGA | 0.39 |
| TCCCAATGAGTCGTCGAGA | 0.193 |
| TCCCGCGAAGTTCCCGAGA | 0.195 |
| TCCCAGCCAGTGAAGGAGA | 0.21 |
| TCCCAATTAGTAAAGGAGA | 0.467 |
| TCCCTCGGAGTAAATGAGA | 0.236 |
| TCCCCATTAGTGGTGGAGA | 0.215 |
| TCCCGTCTAGTCAGAGAGA | 0.0894 |
| TCCCATACAGTTAATGAGA | 0.311 |
| TCCCCATGAGTTGGTGAGA | 0.0296 |
| TCCCAGGGAGTTGTGGAGA | 0.188 |
| TCCCGCGAAGTAGTAGAGA | 0.227 |

| Sequence | TetR repression strength |
| --- | --- |
| TCCCACCCAGTAGTGGAGA | 0.211 |
| TCCCTAGCAGTCTTCGAGA | 0.495 |
| TCCCATGGAGTGAGGGAGA | 0.242 |
| TCCCACAGAGTGCGAGAGA | 0.223 |
| TCCCTGCTAGTAAGCGAGA | 0.168 |
| TCCCTCTCAGTTGTCGAGA | 0.462 |
| TCCCTCTGAGTGGGTGAGA | 0.195 |
| TCCCGGTAAGTTGGTGAGA | 0.19 |
| TCCCCATGAGTCGCGGAGA | 0.194 |
| TCCCGCGAAGTGAGCGAGA | 0.248 |
| TCCCTAGAAGTTTGAGAGA | 0.202 |
| TCCCTATTAGTTGAAGAGA | 0.138 |
| TCCCGTTCAGTCGGCGAGA | 0.0929 |
| TCCCTACAAGTTCGTGAGA | 0.272 |
| TCCCTTGGAGTACACGAGA | 0.237 |
| TCCCTATCAGTGGTTGAGA | 0.591 |
| TCCCGCCGAGTGACTGAGA | 0.333 |
| TCCCATTCAGTGTATGAGA | 0.207 |
| TCCCACTCAGTTGTGGAGA | 0.353 |
| TCCCACAGAGTGTTGGAGA | 0.0429 |
| TCCCGGTAAGTAGCTGAGA | 0.208 |
| TCCCCAATAGTTGGGGAGA | 0.143 |
| TCCCGGGCAGTTTGGGAGA | 0.326 |
| TCCCTGTGAGTGCGGGAGA | 0.112 |
| TCCCTGCGAGTTTACGAGA | 0.25 |
| TCCCGAATAGTCGACGAGA | 0.165 |

| Sequence | TetR repression strength |
| --- | --- |
| TCCCGGTAAGTGGGGGAGA | 0.17 |
| TCCCGGATAGTTGCTGAGA | 0.22 |
| TCCCTCGGAGTGTTAGAGA | 0.589 |
| TCCCGCGTAGTAGGAGAGA | 0.691 |
| TCCCGTGGAGTGAACGAGA | 0.133 |
| TCCCGCTGAGTAGGAGAGA | 0.154 |
| TCCCGCTGAGTGGCGGAGA | 0.195 |
| TCCCGAGTAGTATTGGAGA | 0.258 |
| TCCCATGTAGTATGCGAGA | 0.327 |
| TCCCCCCAAGTGTCTGAGA | 0.331 |
| TCCCATGGAGTGGTCGAGA | 0.075 |
| TCCCGCCGAGTGAGAGAGA | 0.358 |
| TCCCGGCTAGTAGAGGAGA | 0.0518 |
| TCCCATGGAGTCGGCGAGA | 0.479 |
| TCCCTTCCAGTGGACGAGA | 0.205 |
| TCCCGGATAGTCTTCGAGA | 0.0399 |
| TCCCGCCAAGTTTTTGAGA | 0.525 |
| TCCCAGTAAGTATCGGAGA | 0.221 |
| TCCCGACGAGTCCATGAGA | 0.476 |
| TCCCGAGTAGTGTTTGAGA | 0.323 |
| TCCCGTAAAGTTCAAGAGA | 0.415 |
| TCCCATAGAGTATATGAGA | 0.261 |
| TCCCATTTAGTTGTAGAGA | 0.151 |
| TCCCGACAAGTTGGGGAGA | 0.109 |
| TCCCGTCAAGTGATAGAGA | 0.382 |
| TCCCGGCAAGTACGGGAGA | 0.207 |

| Sequence | TetR repression strength |
| --- | --- |
| TCCCATTTAGTGATCGAGA | 0 |
| TCCCTGAGAGTCAAAGAGA | 0.183 |
| TCCCGACGAGTACATGAGA | 0.629 |
| TCCCTTTGAGTGTCCGAGA | 0.294 |
| TCCCACAAAGTGTTCGAGA | 0.159 |
| TCCCGAACAGTTAAGGAGA | 0.0224 |
| TCCCACAGAGTGGCCGAGA | 0.263 |
| TCCCCGTGAGTCATCGAGA | 0.311 |
| TCCCCACAAGTGAGGGAGA | 0.956 |
| TCCCGGGAAGTGGTAGAGA | 0.0854 |
| TCCCTTAGAGTAAGGGAGA | 0.197 |
| TCCCCTCAAGTGGTAGAGA | 0.207 |
| TCCCCAAGAGTGATTGAGA | 0.227 |
| TCCCGTACAGTGGGGGAGA | 0.145 |
| TCCCGTTTAGTGTTGGAGA | 0.191 |
| TCCCGAGTAGTCTTCGAGA | 0.165 |
| TCCCAAAAAGTTGCGGAGA | 0.456 |
| TCCCATCAAGTGGTAGAGA | 0.342 |
| TCCCTAGCAGTGGCCGAGA | 0.372 |
| TCCCGGTCAGTTGTGGAGA | 0.265 |
| TCCCCTCTAGTTGTCGAGA | 0.21 |
| TCCCAGCCAGTTTTGGAGA | 0.298 |
| TCCCTTAAAGTCTGGGAGA | 0.271 |
| TCCCGGTGAGTCCATGAGA | 0.244 |
| TCCCTGACAGTCTAAGAGA | 0.494 |
| TCCCTTTCAGTGATTGAGA | 0.713 |

| Sequence | TetR repression strength |
| --- | --- |
| TCCCCGGGAGTGTACGAGA | 0.164 |
| TCCCCGCTAGTGGGCGAGA | 0.175 |
| TCCCCAACAGTGTTTGAGA | 0.311 |
| TCCCCTATAGTCCGAGAGA | 0.292 |
| TCCCGTTAAGTGGGCGAGA | 0.144 |
| TCCCGATGAGTAAGTGAGA | 0.37 |
| TCCCCTGGAGTACAGGAGA | 0.326 |
| TCCCGCTTAGTTGTCGAGA | 0.287 |
| TCCCGACGAGTAGGGGAGA | 0.1 |
| TCCCGTTGAGTCTGGGAGA | 0.149 |
| TCCCCTCGAGTTTTGGAGA | 0.188 |
| TCCCGGGTAGTGCGCGAGA | 0.311 |
| TCCCAATGAGTGTGCGAGA | 0.115 |
| TCCCTTGTAGTTGAAGAGA | 0.148 |
| TCCCCAGTAGTGGGGGAGA | 0.14 |
| TCCCATACAGTACGGGAGA | 0.266 |
| TCCCATTCAGTGTGAGAGA | 0.518 |
| TCCCCGAGAGTGATAGAGA | 0.3 |
| TCCCCAATAGTTTATGAGA | 0.311 |
| TCCCAGTTAGTCGGCGAGA | 0.388 |
| TCCCTAAGAGTACGGGAGA | 0.231 |
| TCCCTCGGAGTGATGGAGA | 0.159 |
| TCCCGCAAAGTTTGCGAGA | 0.219 |
| TCCCTGTGAGTAATTGAGA | 0.17 |
| TCCCAAACAGTGGGCGAGA | 0.41 |
| TCCCCTTGAGTGGCGGAGA | 0.129 |

| Sequence | TetR repression strength |
| --- | --- |
| TCCCCGGCAGTCCGCGAGA | 0.0912 |
| TCCCGCACAGTATCGGAGA | 0.269 |
| TCCCAATCAGTTTAAGAGA | 0.368 |
| TCCCCCACAGTGCTCGAGA | 0.387 |
| TCCCCTAGAGTTCGTGAGA | 0.161 |
| TCCCACGCAGTCTGGGAGA | 0.118 |
| TCCCTGTTAGTCTTAGAGA | 0.154 |
| TCCCTTTGAGTGTGAGAGA | 0.192 |
| TCCCTCGTAGTGGCTGAGA | 0.378 |
| TCCCGCTTAGTGGCGGAGA | 0.177 |
| TCCCTGGCAGTGTTTGAGA | 0.253 |
| TCCCGGATAGTAGCGGAGA | 0.329 |
| TCCCGGTAAGTGTTGGAGA | 0.172 |
| TCCCCTGTAGTCGGCGAGA | 0.283 |
| TCCCAATGAGTGGTGGAGA | 0.212 |
| TCCCTCATAGTCGGAGAGA | 0.257 |
| TCCCAGGTAGTGCGTGAGA | 0.294 |
| TCCCGGGTAGTGTGGGAGA | 0.214 |
| TCCCGTGCAGTAACGGAGA | 0.114 |
| TCCCCAGCAGTGAGTGAGA | 0.167 |
| TCCCCGAGAGTACCGGAGA | 0.159 |
| TCCCCGGAAGTGACAGAGA | 0.26 |
| TCCCGATGAGTAATTGAGA | 0.222 |
| TCCCAGGGAGTCGCAGAGA | 0.511 |
| TCCCTGTGAGTACAGGAGA | 0.189 |
| TCCCATATAGTACTCGAGA | 0.207 |

| Sequence | TetR repression strength |
| --- | --- |
| TCCCGTCGAGTCGGAGAGA | 0.327 |
| TCCCGACCAGTCGGGGAGA | 0.112 |
| TCCCGGTGAGTGTTAGAGA | 0.453 |
| TCCCCTAAAGTGGGGGAGA | 0.325 |
| TCCCTAGTAGTACGAGAGA | 1.22 |
| TCCCACACAGTGATTGAGA | 0.379 |
| TCCCAAGCAGTCTTTGAGA | 0.375 |
| TCCCAGCGAGTGGCAGAGA | 0.585 |
| TCCCTCAAAGTGGGAGAGA | 0.0218 |
| TCCCGCACAGTCTAAGAGA | 0.246 |
| TCCCTGAGAGTCATCGAGA | 0.104 |
| TCCCGAAGAGTAGGAGAGA | 0.153 |
| TCCCTTACAGTGGTGGAGA | 0.233 |
| TCCCTAGCAGTAGACGAGA | 0.409 |
| TCCCGCGAAGTAAATGAGA | 0.208 |
| TCCCATCAAGTGTCCGAGA | 0.424 |
| TCCCGGAGAGTGGCAGAGA | 0.169 |
| TCCCAGTAAGTGCCTGAGA | 0.124 |
| TCCCTCGAAGTTTTGGAGA | 0.205 |
| TCCCAGAGAGTGTGTGAGA | 0.257 |
| TCCCTTAAAGTGGACGAGA | 0.225 |
| TCCCCTGGAGTATAGGAGA | 0.221 |
| TCCCTGTTAGTAGACGAGA | 0.194 |
| TCCCCGATAGTGTTGGAGA | 0.247 |
| TCCCCGCTAGTAGTCGAGA | 0.127 |
| TCCCTCGGAGTGCTTGAGA | 0.224 |

| Sequence | TetR repression strength |
| --- | --- |
| TCCCAGGGAGTGCCGGAGA | 0.19 |
| TCCCGTAGAGTTGACGAGA | 0.0976 |
| TCCCAGTCAGTGGGAGAGA | 0.296 |
| TCCCAGCTAGTGAGAGAGA | 0.36 |
| TCCCTTCCAGTTCTGGAGA | 1.04 |
| TCCCAAGCAGTTGCAGAGA | 0.178 |
| TCCCGATGAGTCTTTGAGA | 0.0786 |
| TCCCGGCTAGTCGCCGAGA | 0.177 |
| TCCCGGGGAGTATGTGAGA | 0.455 |
| TCCCGATTAGTTTTTGAGA | 0.493 |
| TCCCGTTGAGTCCTCGAGA | 0.287 |
| TCCCGACAAGTGTTGGAGA | 0.292 |
| TCCCCCCAAGTGCTGGAGA | 0.315 |
| TCCCGCGTAGTGGGGGAGA | 0.203 |
| TCCCGTCGAGTTATCGAGA | 0.284 |
| TCCCACTTAGTAGGTGAGA | 0.147 |
| TCCCACCGAGTACACGAGA | 0.315 |
| TCCCCAGAAGTGGCAGAGA | 0.263 |
| TCCCTCTGAGTGCGAGAGA | 0.281 |
| TCCCTCGTAGTCCAGGAGA | 0.207 |
| TCCCAGTGAGTGGTTGAGA | 0.188 |
| TCCCTCTAAGTGCGAGAGA | 0.479 |
